In PubChem BioAssay AID743279 (National Center for Advancing Translational Sciences (NCATS), 2014):
Screen size: about 360,000 compounds; about 17,000 (4.7%) were called active. The shares of active, inactive and inconclusive entries below differ from those in the screen. Cut-off read from the data, not from the text of the source: active = activity change below about -50%; inconclusive = mostly about -30% to -49%; inactive = weaker than that. A structure can be active in one record and inactive in another.

test: qHTS for Inhibitors of Inflammasome Signaling: IL-1-beta AlphaLISA Primary Screen; details: THP-1 LPS/ATP IL-1B secretion, 16 h; at 57.5 µM, hits give low values
Procedure, shortened: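 THP-1 cells pretreated 1 hr with compounds (up to 57.5 uM final), then stimulated with LPS (250 ng/mL final) plus ATP (1.25 mM final); secreted IL-1B measured by AlphaLISA after 16 hr, decreased signal indicating inhibition.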
% is set by controls: 0 for no effect and ±100 for the full control effect.

Activity change, active:
Cc1cc2c(nc1C)CCCN2C[C@@H](C)O/N=C1/[C@H]2CCn3c(=O)n(-c4ccccc4)c(=O)n3[C@H]2[C@H](O)[C@@H]2O[C@H]12 -54.3%, CCN(CC)CCNC(=O)c1cc2c(-c3ccc(Cl)cc3)nn(C)c2s1 -89.8%, O=S(=O)(Nc1ccc2c(c1)nc1n2CCN(Cc2ccccc2)C1)c1ccc(Cl)cc1 -55%, COc1ccc(CNc2nc(-c3ccccc3)nc3ccccc23)cc1OC -62.2%, CCCCCOc1ccc(Br)cc1CSC(=N)N -96.9%, CCN1CCN(Cc2ccc(NC(=O)c3cc(NC(=O)c4cc5cccc(OC)c5o4)cc(OC)c3)cc2C(F)(F)F)CC1 -107%, COc1ccc(CN2CCc3c([nH]c4ccccc34)C2)c(OC)c1C -89%, CCCCNC(=O)C(C)N(CCN(C)C)C(=O)CCCN1C(=O)NC(c2ccc([N+](=O)[O-])cc2)C(C(=O)OCc2ccccc2)=C1C (stereo not drawn) -78.8%, O=C(Cc1cccs1)N(Cc1cccs1)C1(C(=O)NC2CCCCC2)CCCCC1 -52.3%, Cc1ccc(CCC(=O)Nc2ccc([N+](=O)[O-])cc2)o1 -74.5%, O=c1c2ccccc2sn1-c1ccc(S(=O)(=O)N2CCCC2)cc1 -102%, CCN(CC)CCCN(C(=O)c1ccc(F)cc1)c1nc(-c2ccc(OC)cc2)cs1 -93.4%, Cc1ccc(-n2c(SCC(=O)N3CC(=O)Nc4ccccc43)nc3ccccc3c2=O)cc1 -74.4%, Cc1cccc(NC(=S)N/N=C/C(C)c2ccccc2)c1C (stereo not drawn) -103%, CN(/N=C\c1ccc(O)c(O)c1)c1nc(-c2ccccc2)cc(-c2ccccc2)n1 -60.7%

Activity change, inactive:
Cc1cc(Cl)ccc1N(CC(=O)NCc1ccc2c(c1)OCO2)S(C)(=O)=O 6.69%, CCOC(=O)C1CCN(C(=O)c2cccc(N3C(=O)NC4CC3(C)Oc3ccc(C)cc34)c2)CC1 (stereo not drawn) -14.5%, S=C(NCc1ccccc1)NCc1ccc(Cl)cc1 40.8%, O=C(N/N=C/c1ccco1)c1ccc(N2CCCC2=O)cc1 9.79%, CCc1nc2ccccc2c(=O)n1/N=C/c1ccc(Cl)cc1 7.44%, CCC(=O)Nc1ccc(Oc2ccc(NC(=O)CC)c(NC(=O)CC)c2)cc1 3.4%, COCCN(CCOC)Cc1c(O)ccc2c1O/C(=C\c1ccc(C)o1)C2=O 28.1%, COC(=O)CC(NC(=O)CN1CCN(c2ccc(F)cc2)CC1)c1cccc(F)c1 (stereo not drawn) 22.3%, CC(=O)C1=NN(c2ccccc2)C(c2ccc3c(c2)OCO3)N1c1ccccc1 (stereo not drawn) 28.4%, CC12CN(C(=O)c3ccccc3)C3(C#N)CC1CCC23C (stereo not drawn) -3.01%, COc1ccccc1C(=O)NC(=O)CSc1ccc(C)c(C)c1 17.8%, Cc1cccc(C)c1-n1nnnc1C(C1CC1)N1CCN(C/C=C/c2ccccc2)CC1 (stereo not drawn) -20.5%, COc1ccc2c(=O)c3c(=O)n(-c4ccccc4)c(-c4ccc(C)cc4)nc3oc2c1 59.6%, COCc1cc(=O)c2ccccc2o1 5.24%, CN(C[C@@H](CC1CCCCC1)N(C[C@H](Cc1ccccc1)N(CCc1ccccc1)N=O)N=O)N=O 2.06%, CCOC(=O)Cc1csc(NC(=O)/C=C/c2ccco2)n1 -9.38%, O=C(Nc1ccc(F)cc1)Nc1ccccc1N1CCCCC1 -16.6%, C/C(=N\NC(=O)c1cccc(S(=O)(=O)N2CCCC2)c1)c1ccc(OCC(=O)N(C)C)cc1 -7.33%, CC(C)(O)CC[C@H](OC(=O)c1ccccc1)[C@](C)(O)[C@H]1CC[C@@]2(O)C3=CC(=O)[C@@H]4C[C@@H](O)[C@H](O)C[C@]4(C)C3CC[C@]12C (stereo partly drawn) -13.3%

Activity change, inconclusive:
Cc1[nH]c2c(C(=O)N3CCCC(CCC(=O)NCc4ccccc4F)C3)cccc2c1C (stereo not drawn) -35.5%, COC(=O)c1[nH]c2cc(C)ccc2c1NC(=O)CN1CCc2cc(OC)c(OC)cc2C1 -30.2%, COc1cccc(NC(=O)c2ccc3c(c2)CCCC3)c1 -43%, O=C1c2ccccc2-c2onc3ccc(N4CCCC4)c1c23 -48.7%, CC(C)(C)OC(=O)NCc1ccc(NC(=O)c2nc[nH]c2C(=O)Nc2cc(Br)ccc2F)cc1 -31.8%, Cc1ncc([N+](=O)[O-])n1CCOC(=O)C12CC3CC(CC(C3)C1)C2 -38.6%, O=[N+]([O-])c1ccc2nc(NS(=O)(=O)c3ccc(F)cc3)sc2c1 -35%, COc1cccc(NC(=O)c2ccc3c(c2)OCCO3)c1 -43.7%, COc1ccc(Nc2cc(C(=O)NCCCN3CCN(C)CC3)c3ccccc3n2)c(OC)c1 -41.7%, O=C(O)c1ccc(COc2ccc3ccccc3c2/C=C2/NC(=O)N(Cc3ccc(F)cc3)C2=O)cc1 -30.4%, CC(OC(=O)c1ccc(NS(=O)(=O)c2ccc3[nH]c(=O)[nH]c3c2)cc1)C(=O)Nc1ccc(Cl)cc1 (stereo not drawn) -42.3%, CCN(CC(=O)Nc1ccc2c(c1)OCCO2)C(=O)/C=C/c1cc(Br)ccc1OC -33.1%, O=S(=O)(Nc1ccc(-c2ccccc2)cc1)c1ccccc1 -40.3%, Cn1nc(C(=O)Nc2ccc(Cl)c(S(=O)(=O)N3CCOCC3)c2)c2ccccc2c1=O -43.1%, COc1ccc(-c2cc(NC=O)c3ncc(-c4cccc(C(=O)NCCN(C)C)c4)n3c2)cc1 -34%, CC(NCCC(c1ccccc1)c1ccccc1)c1ccccc1 (stereo not drawn) -47.4%, CCN(CC)S(=O)(=O)c1cc(NC(=O)CNc2cccc(S(=O)(=O)N3CCCC3)c2)ccc1C -40.5%, Cc1cc(Oc2ccc(-c3ccccc3)cc2)n2ncnc2n1 -43.7%, COC(=O)[C@@]1(Cc2ccc(F)cc2)[C@H]2c3cc(C(=O)N4CCCC4)n(CCc4c[nH]c5ccccc45)c3C[C@H]2CN1C(=O)c1ccccc1 -33.6%, COc1ccc(-c2nn(-c3ccccc3)cc2C(=O)Nc2nccs2)cc1 -49.1%, Clc1cccc(NCc2nnc(SCc3ccccc3Cl)o2)c1 -41%, Oc1ccccc1OCCOc1ccccc1OCCOc1ccccc1O -47.5%, O=S(=O)(c1ccccc1)N1CCN(c2cc(-c3ccccc3)nc3ncnn23)CC1 -37.6%, O=C(Nc1ccc(-n2nncc2-c2ccco2)cc1)c1ccc(F)cc1 -45.6%, O=C(c1ccccc1)c1ccc(OCC(O)CN2CCN(Cc3ccccc3)CC2)cc1 (stereo not drawn) -33.8%, Cc1ccccc1-c1nc(CS(=O)(=O)CC(=O)NCCCN2CCN(C)CC2)c(C)o1 -48.8%, O=C(Oc1ccc(Cl)c2cccnc12)c1cccnc1 -44.6%, COc1ccc(CCNc2cc(C)[nH]c(=O)c2)cc1OC -30.3%, CN(C)S(=O)(=O)c1cccc(C(=O)Nc2ccccc2[N+](=O)[O-])c1 -30.2%, Cc1ccccc1NC(=S)N1CCCN(Cc2ccc(F)cc2)C1 -41.7%, COc1ccc(-n2nc(C(=O)NCC(=O)N3CCC(C)CC3)c3ccccc3c2=O)cc1 -34.8%, O=C(Cc1cccs1)N(Cc1ccco1)C1(C(=O)NC2CCCCC2)CCCCC1 -43.2%, CN(c1ccccc1)S(=O)(=O)c1ccc(NC(=O)c2ccccc2)cc1 -35.1%, O=C(CCl)N1c2ccccc2Oc2ccc3ccccc3c21 -39.1%, O=C(CCN1CCCCC1)N/N=C/c1ccc(Br)cc1 -32.9%, CCC(CO)Nc1nc(CN2CCCCC2)nc2scc(-c3ccccc3)c12 (stereo not drawn) -42.4%, O=C(CN(C(=O)c1cc2c(s1)CCC2)C1CCCC1)NCc1cccs1 -42.9%, CC(NC(=O)C12CC3CC(CC(C3)C1)C2)C(=O)NN=Cc1ccc([N+](=O)[O-])o1 (stereo not drawn) -30.9%, Cc1c(C(=O)OCCOc2ccccc2)[nH]c2c1C(=O)CCC2 -48.4%, COc1ccc(C(CNC(=O)c2cc(S(=O)(=O)N3CCN(c4ccccc4)CC3)ccc2Cl)N(C)C)cc1 (stereo not drawn) -34%, CCc1cccc2c(C(=O)COC(=O)/C=C/c3ccc(O)c(OC)c3)c[nH]c12 -36.3%, O=C(CCN1CCOCC1)NNC(=O)c1ccc(Cl)c([N+](=O)[O-])c1 -36.7%, Cn1c(NCc2cccc(Br)c2)nc2ccccc21 -38.7%, CCCCOc1cccc(/C=N/NC(=O)c2csc(C)c2C)c1 -43.9%, O=C(NCCC1CCCCN1S(=O)(=O)c1cccs1)C(=O)Nc1ccc(F)cc1F (stereo not drawn) -35.4%, COC(=O)c1ccccc1NC(=O)CN1CCCCC1 -42.4%, CN1CCN(C(CNC(=O)C(=O)Nc2ccc3c(c2)OCCO3)c2ccc(F)cc2)CC1 (stereo not drawn) -36.3%, O=C(NC1CCCCCCC1)c1cccc(Cl)c1 -38.9%, CCOc1cccc2sc(N(CCCN(C)C)C(=O)c3ccc(S(=O)(=O)N4CCc5ccccc5C4)cc3)nc12 -45.6%
